# Measured values from the supplement of paper PMC3656093.
# ± gives the standard deviation of the averaged measurements. Whole data set: some 1,900 compounds, median “CD40L-induced NF-kB luciferase activity, plate-corrected, relative to DMSO (0) and IKK inhibitor VII (-100) controls” near 0.032, cut for the lowest 2% near -26. The list shows a part of the results.
# Test system: BL2-NFkB-Luc
# Assay: CD40L-induced NF-kB luciferase activity, plate-corrected, relative to DMSO (0) and IKK inhibitor VII (-100) controls (% normalized activity); higher = more NF-kB reporter activity (less inhibition)
# Conditions: 9.4 µM; stimulus: tCD40L 64 ng/ml; 4.5 h
# Procedure: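 BL2 B cells with a stable NF-kB response-element luciferase reporter (BL2-NFkB-Luc), 384-well. Cells were pre-incubated with compound at 9.4 uM for 1 h at 37 C, then stimulated with 64 ng/ml trimerized CD40L for 4.5 h; luciferase was read with Steady-Glo. Signal was normalised per plate in Genedata (median DMSO neutral control = 0, median IKK inhibitor VII at 50 uM = -100) with Assay Median plate-pattern correction; duplicate plates.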
row,Compound,CD40L-induced NF-kB luciferase activity
1,CN(C)c1ccc(Nc2c3c4c(cccc4n(C)c2=O)C(=O)c2ccccc2-3)cc1,-14.7 ± 0.21
2,O=C(O)COc1ccc2occ(C(=O)c3ccccc3)c2c1,15 ± 1.8
3,COC(=O)c1sccc1NC(=O)Nc1ccccc1F,9.6 ± 1.5
4,CCN(CC)c1ccc([C@H]2[C@@H]3CCCC[C@]3(O)CCN2CC(=O)NCc2ccco2)cc1,-2.56 ± 3
5,CC(C)OC(=O)c1ccc(NC(=O)c2cncc(Br)c2)cc1,4.22 ± 5
6,O=C(NC1CCCCC1)c1cc2nc(-c3ccco3)cc(C(F)(F)F)n2n1,1.55 ± 1.8
7,COc1ccc2c(c1OC)C(=O)N1C2SC[C@H]1C(=O)NC1CC(C)(C)NC(C)(C)C1 (some centres not stated),-2.01 ± 0.25
8,COc1ccc(C(=O)COc2ccc(F)cc2)c(O)c1,50.7 ± 3.5
9,O=C(c1ccc(-c2ccccc2)c(F)c1)C1CCCN(C(=O)c2cncs2)C1 (configuration not stated),1.16 ± 0.81
10,O=C(/C=C/c1ccc(F)cc1)NC(=S)N1CCCCC1c1cccnc1 (configuration not stated),9.18 ± 3.1
11,Cc1nc(NC(CC(C)C)C(=O)O)c2nc(C)oc2n1 (configuration not stated),4.53 ± 5.9
12,Cn1cc(CN2CCN(CCO)CC2)c(-c2ccc(Oc3ccccc3)cc2)n1,2.68 ± 1.8
13,O=C(/C=C/c1ccccc1)c1ccccc1,28.7 ± 2.6
14,O=C1Cc2ccccc2C(c2ccccc2)N1 (configuration not stated),2.74 ± 0.35
15,CCN1CCN(C(=S)c2ccc(OC)cc2)CC1,-3.84 ± 2
16,Cc1ncc([N+](=O)[O-])n1CCO,-1.91 ± 3.7
17,CCN(CC)CC#CCOC(=O)C(O)(c1ccccc1)C1CCCCC1 (configuration not stated),-4.02 ± 0.34
18,O=C(COc1ccc(F)cc1)OCCN1CCOCC1,0.903 ± 1.5
19,O=C1CC[C@@H](CN(Cc2ccccc2)Cc2cn[nH]c2-c2cc3ccccc3o2)N1,-5.37 ± 1.6
20,O=C(O)c1ccc(C(=O)C(=O)c2ccccc2)cc1,-6.47 ± 15
21,CCc1cc2c(=O)c(-c3nc(C)cs3)coc2cc1OC(C)C(=O)NCCO (configuration not stated),11.6 ± 4.8
22,C=CCn1c(SCC(=O)NC2CCCCC2)nc2ccccc2c1=O,3.45 ± 6.7
23,COc1ccc2oc(=O)c(C(=O)Nc3ccccc3-c3ccccc3)cc2c1,-2.83 ± 0.54

row,Compound,CD40L-induced NF-kB luciferase activity
1,CCN(CC)CCNC(=O)c1cc(S(C)(=O)=O)ccc1OC,-0.512 ± 0.56
2,N#CC(C(N)=O)=c1ccc2c(c1)N1C3=C(CCCC3)CC3CCCCC31N=2 (configuration not stated),-1.04 ± 4.6
3,O=C(CCCN1CC=C(n2c(=O)[nH]c3ccccc32)CC1)c1ccc(F)cc1,-2.92 ± 5.7
4,COc1cc2oc(-c3ccc(O)cc3)cc(=O)c2c(OC)c1O,2.41 ± 4.4
5,CN/C(=C/[N+](=O)[O-])NCCSCc1ccc(CN(C)C)o1,-2.15 ± 1.7
6,COc1ccc2cc(CCC(C)=O)ccc2c1,59.9 ± 3.9
7,CC(=O)N(CCC(Cc1ccccc1)c1ccc2c(c1)OCO2)Cc1ccc(Cl)cc1 (configuration not stated),-5.42 ± 2.8
8,O=C(O)c1ccccc1OCCOc1ccccc1,0.457 ± 1.1
9,CCn1cc(C(=O)O)c(=O)c2ccc(C)nc21,-0.59 ± 2
10,C#CCN(C)Cc1ccccc1,0.832 ± 1.9
11,O=c1c2ccccc2nnn1Cc1cccc2ccccc12,0.833 ± 1.5
12,CC(=O)N1CC23C=CC(CC2CC12CCCCCC2)O3 (configuration not stated),-6.1 ± 1.8
13,O=C(O)C1[C@H]2C(=O)N(C3CCCC3)C[C@]23C=C[C@H]1O3 (some centres not stated),-0.855 ± 0.28
14,CCc1cc2c(=O)c(-c3nc4ccccc4n3C)coc2c(CN2CCN(C)CC2)c1O,-3.98 ± 2.5
15,CC(C)(C)OC(=O)NCCC(=O)Oc1ccc2ccc(=O)oc2c1,-4.48 ± 6
16,CC(=O)Oc1ccc(C2OC(=O)c3ccccc3N2C(C)=O)cc1 (configuration not stated),-32.9 ± 1
17,COc1ccc(OC)c(-n2c(Cn3c(-c4ccccn4)nc4ccccc43)n[nH]c2=S)c1,-3.66 ± 2
18,COc1cc2nc(N3CCN(C(=O)c4ccco4)CC3)nc(N)c2cc1OC,-0.292 ± 0.47
19,COc1ccc2c(c1O)Cc1ccccc1C2=O,44.8 ± 13
20,CC(=O)[C@@H]1[C@@H](C(=O)c2ccc(C)cc2)[C@]2(C(=O)Nc3ccccc32)[C@H]2C=Cc3cc(F)ccc3N12,3.22 ± 1.4
21,O=c1oc2c(CN3CCCCC3)c(O)ccc2c2c1CCCCC2,3.37 ± 7.8
22,CC1CCCc2sc3ncn(N)c(=N)c3c21 (configuration not stated),-2.53 ± 1.9
23,COC(=O)c1ccc(C(=O)OC)c(NC(=O)C(C)C)c1,-1.03 ± 0.61

row,Compound,CD40L-induced NF-kB luciferase activity
1,O=C(c1cccnc1)N1N=C(C2CC2)CC1(O)C(F)(F)F (configuration not stated),1.25 ± 2.2
2,Nc1ccc(S(=O)(=O)c2ccc(N)cc2)cc1,-2.51 ± 1.8
3,OCCN1CCN(CCCN2c3ccccc3Sc3ccc(Cl)cc32)CC1,-0.695 ± 1.4
4,COC(=O)C1=C(C)N(C)C(=S)NC1c1ccc(Cl)cc1 (configuration not stated),-1.51 ± 7.8
5,O=C(NNC(=O)c1cccs1)c1ccco1,-1.85 ± 2.4
6,Cn1nnnc1SCC1=C(C(=O)O)N2C(=O)[C@@H](NC(=O)[C@H](O)c3ccccc3)[C@H]2SC1,0.9 ± 1.8
7,CCCC(=O)O[C@]1(C(=O)COC(C)=O)CC[C@H]2[C@@H]3C[C@H](F)C4=CC(=O)C=C[C@]4(C)[C@@]3(F)[C@@H](O)C[C@@]21C,-17.6 ± 1.6
8,CC(=O)OCC#CCSc1nc2ccccc2n1C,6.54 ± 2.4
9,O=C(O)c1ccccc1C(=O)OCCCCOC(=O)c1ccccc1C(=O)O,-5.58 ± 0.63
10,CC(=O)Nc1ccc2[nH]c(C)c(CC=C(Cl)Cl)c(=O)c2c1,-5.15 ± 0.9
11,O=c1cc(-c2ccccc2)oc2cc(OCc3ccccc3)cc(O)c12,3.36 ± 4.5
12,O=C(COc1ccc2c(-c3ccccc3)cc(=O)oc2c1)NCc1cccs1,10.3 ± 1.1
13,COc1cc(CNc2nnnn2C)ccc1OCc1ccc(F)cc1Cl,-2.11 ± 11
14,CCc1cc2c(C)cc(=O)oc2cc1OC(=O)C1CCCN1C(=O)OC(C)(C)C (configuration not stated),3.67 ± 4.8
15,CCCc1c(OCCCCc2nn[nH]n2)ccc(C(C)=O)c1O,3.29 ± 4.4
16,C=CCc1cccc2cc(C(=O)Nc3ccc(CC(=O)O)cc3)c(=O)oc12,-5.12 ± 7.4
17,CCc1cccc(OC2OC(CO)C(O)C(O)C2NC(C)=O)c1 (configuration not stated),0.237 ± 1.4
18,Cc1ccc(CN2CCN(Cc3cn[nH]c3C3CCCCC3)CC2CCO)cc1 (configuration not stated),2.58 ± 2.8
19,CCCC(=O)Nc1ncnc2c1ncn2[C@@H]1O[C@@H]2COP(=O)(O)O[C@H]2[C@H]1OC(=O)CCC,0.597 ± 2.9
20,O=C(N1CCCCC1)C1(c2ccccc2)CCOCC1,-1.25 ± 1
21,CCOc1ccc2nc(NC(=O)NC3CCCCC3)sc2c1,13.7 ± 0.33
22,Nc1nc(SCc2ccc([N+](=O)[O-])cc2)c2ncn(C3OC(CO)C(O)C3O)c2n1 (configuration not stated),6.103 ± 0.039
23,CC(C)Cc1cc(C(=O)N2CCC(N3CCC(C(=O)N4CCCC4)CC3)CC2)n[nH]1,-1.03 ± 0.32

row,Compound,CD40L-induced NF-kB luciferase activity
1,C[C@H]1C[C@H]2[C@@H]3CCC4=CC(=O)C=C[C@]4(C)[C@@]3(Cl)[C@@H](O)C[C@]2(C)[C@@]1(O)C(=O)CO,-25.6 ± 2.2
2,COc1cccc2cc(-c3ccccc3)c(=O)oc12,55.9 ± 8.7
3,COc1ccc(-c2c3c(=O)n(C)c(=O)n(C)c3cn2C2CCCCC2)cc1,0.188 ± 0.9
4,Cn1cc(/C=C/C(=O)c2ccccc2)c2ccccc21,3.44 ± 3
5,CC(=O)[C@H]1CC[C@H]2[C@@H]3CCC4=CC(=O)CC[C@]4(C)[C@H]3[C@H](O)C[C@]12C,-10.6 ± 14
6,O=C(c1cc2cc(Br)ccc2o1)N1CCCC1,38.77 ± 0.2
7,Cc1ccc(P(=O)(CSC(=N)N)c2ccc(C)cc2)cc1,-16.8 ± 1.5
8,CC1(C)CC(C(CC(=O)O)c2ccccc2)CCO1 (configuration not stated),8.6 ± 1.1
9,CC(=NNC(=O)C1(C)CC1(Br)Br)c1ccc([N+](=O)[O-])cc1 (configuration not stated),2.34 ± 3.3
10,CC(C)OC(=O)CC12CN3CN(C1)CC(CC(=O)OC(C)C)(C3)C2=O,4.53 ± 5.1
11,CC(=O)N1CCn2c3c(c4cc(C)ccc42)CCCC31 (configuration not stated),1.48 ± 4.6
12,COc1ccc2cc[nH]c2c1,-2.12 ± 5.1
13,C[C@H](NC(=O)Nc1ccccc1F)C(=O)O,3.4 ± 0.28
14,CCc1cc(=O)oc2cc(OCc3nn[nH]n3)ccc12,-0.362 ± 2.4
15,C[S+]([O-])c1ccccc1O (configuration not stated),-1.44 ± 1.8
16,CC(=O)Oc1cc(C(C)C)c(OCCN(C)C)cc1C,0.175 ± 3.1
17,COC1=CC(=O)CC(C)C12Oc1c(Cl)c(OC)cc(OC)c1C2=O (configuration not stated),-12.1 ± 0.18
18,CS(=O)(=O)Nc1cccc(C(=O)CC2(O)C(=O)Nc3ccc(Br)cc32)c1 (configuration not stated),-1.48 ± 3.9
19,O=C(/C=C/c1c[nH]c2ccccc12)c1cccc2ccccc12,1 ± 1.2
20,O=C(N1CCCC1)C12CC3CC(C1)CC(C(=O)N1CCCC1)(C3)C2,-3.85 ± 1.6
21,O=c1[nH]c(=O)n([C@H]2C[C@H](O)[C@@H](CO)O2)cc1F,4.58 ± 7
22,NS(=O)(=O)c1cc2c(cc1Cl)NCNS2(=O)=O,3.64 ± 7.5
23,CC(C)Cn1c(=S)[nH]c2cc(C(=O)O)ccc2c1=O,1.33 ± 2.4

row,Compound,CD40L-induced NF-kB luciferase activity
1,NC(N)=N/N=C/c1c(Cl)cccc1Cl,-3.93 ± 7.5
2,Cc1coc2cc3oc(=O)c(CCC(=O)O)c(C)c3cc12,8.04 ± 4.1
3,C[N+](C)(C)CCOP(=O)(O)OC[C@H](O)CO,-15.1 ± 19
4,CC(=O)[C@@]1(O)CC[C@H]2[C@@H]3CCC4=CC(=O)CC[C@]4(C)[C@H]3[C@@H](O)C[C@@]21C,-12.9 ± 3.2
5,CS(=O)(=O)Nc1ccc([N+](=O)[O-])cc1Oc1ccccc1,-1.13 ± 4
6,COc1cc(C)nc(-n2nc(C)cc2OC)n1,3.15 ± 0.63
7,CCOc1ccc(CC2c3cc(OCC)c(OCC)cc3CCN2C(=O)CN2CCN(C)CC2)cc1OCC (configuration not stated),-6.59 ± 12
8,COC(=O)c1[nH]c2ccc(F)cc2c1NC(=O)C1=COCCO1,0.19 ± 3.9
9,O=C(NCCO)c1ccc2[nH]c3ccccc3c2c1,-0.687 ± 0.91
10,COc1ccc(CN2CCCC(C(=O)c3ccc(Cl)cc3)C2)cc1Cn1cccn1 (configuration not stated),-6.8 ± 6.1
11,COc1ccc2c(c1OC)C(C1c3c(cc4c(c3OC)OCO4)CCN1C)OC2=O (configuration not stated),3.37 ± 3.6
12,CC1(C)C(=O)OC(/C=C\c2ccccc2)C(C)(C)C1=O (configuration not stated),-6.16 ± 0.13
13,O=C(OCC1CCCN2CCCCC12)c1ccc2c(c1)OCO2 (configuration not stated),3.01 ± 4.1
14,COc1cc(C(=O)OCCCN(C)C)cc(OC)c1OC,-3.95 ± 3.6
15,CCc1cc(C(N)=S)ccn1,2.2 ± 2.8
16,Cc1ccc2c(c1)c(=O)c1c3n2CCN(C(=O)CCl)C3CC1 (configuration not stated),-2.91 ± 2.5
17,COc1ccccc1-c1ccc(/C=C2/C=C(CC(C)C)OC2=O)o1,3.27 ± 3.5
18,NC(=O)c1ncn([C@@H]2O[C@H](CO)[C@@H](O)[C@H]2O)c1O,1.27 ± 4.8
19,COc1ccc2c3c([nH]c2c1)C1(NCC3)C(=O)Nc2ccccc21 (configuration not stated),5.33 ± 6.5
20,COc1ccccc1/C=C/CN1CCN(Cc2ccc(F)cc2)C(CCO)C1 (configuration not stated),-2.69 ± 5.2
